{
  "source": "PubChem BioAssay AID504832",
  "about": "(National Center for Advancing Translational Sciences (NCATS), 2011)",
  "note": "The campaign covered roughly 310,000 compounds. About 18,000 (5.8%) were called active. The shares of active, inactive and inconclusive entries below differ from those in the screen. The call rests on the fitted dose curve; in most records, active means well fitted inhibition curve with a large enough effect; inconclusive means small, poorly fitted or top-dose-only effect, or another doubt; inactive means no such curve, though single readings can be large or run the other way. Potencies of inconclusive entries are left out as doubtful fits. On the % scale 0 is the no-effect control and ±100 the full control effect; potency means the concentration at half of the fitted maximal effect; tags describe the fitted curve by direction and shape.",
  "data": [
    {"experiment": "Primary qHTS for delayed death inhibitors of the malarial parasite plastid, 48 hour incubation", "conditions": "P. falciparum luciferase growth in erythrocytes; series mostly up to 28.7 µM", "outline": "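Parasite viability was followed by luminescence of a genomically integrated firefly luciferase. Cultures held 0.1% parasitemia at 2% hematocrit (final), incubated under 5% CO2 at 37 C.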", "values": [
      {"smiles": "CCOc1cc(N2CCOCC2)c(OCC)cc1NC(=O)COC(=O)CCOc1cc(C)ccc1C", "Potency": "inactive"},
      {"smiles": "COC(=O)Cc1ccc(NC(=O)c2ccc3c(c2)C(=O)N(Cc2ccco2)C3=O)cc1", "Potency": "inactive"},
      {"smiles": "C=CCn1c(COc2cccc3cccnc23)nnc1SCC(=O)O", "Potency": "inactive"},
      {"smiles": "C=CCNC(=O)/C(C#N)=C/c1ccccc1[N+](=O)[O-]", "Potency": "inactive"},
      {"smiles": "Cc1nc(/N=C\\N(C)C)sc1C(=O)Nc1ccccc1", "Potency": "inactive"},
      {"smiles": "CN(C)S(=O)(=O)c1cccc(N=C2NN=C(c3ccccc3)CS2)c1", "Potency": "active: 13.1 µM"},
      {"smiles": "COc1ccc(N(C)C(=S)Oc2ccc(C(=O)Nc3ccccc3)cc2)cc1", "Potency": "inconclusive [inhibitor, single point]"},
      {"smiles": "O=C(NCCc1ccccc1)c1ccc(S(=O)(=O)N2CCCC2)cc1", "Potency": "inactive"},
      {"smiles": "N#Cc1ccccc1CN1C(=O)NC2(CCCCCC2)C1=O", "activity change, negative = inhibition": "inactive: -13.4% [at 0.00184 µM]"},
      {"smiles": "N=c1sccn1CC(=O)NCCc1ccc(Cl)cc1Cl", "Potency": "inconclusive [inhibitor, partial curve, poor fit]"},
      {"smiles": "COc1cc(C(=O)NC2CC(C)(C)CC(C)(C)C2)ccc1OC1CCN(C(C)=O)CC1", "Potency": "inconclusive [inhibitor, full curve]"},
      {"smiles": "C=CCn1c(COc2ccccc2)nc2ccccc21", "Potency": "inactive"},
      {"smiles": "CCN(Cc1ccccc1)C(=O)c1cc(S(=O)(=O)N2CCOCC2)cn1C", "Potency": "inactive"},
      {"smiles": "O=C(C1CCN(S(=O)(=O)N2CCOCC2)CC1)N1CCc2ccccc21", "Potency": "inactive"},
      {"smiles": "COc1ccc(C2CC3(CC(C)(C)NC(=S)N3)Oc3cc(O)cc(C)c32)cc1", "note": "(configuration not stated)", "Potency": "inconclusive [inhibitor, partial curve]"},
      {"smiles": "O=C(c1cc(COc2ccc(F)cc2Cl)on1)N1C[C@H]2CC[C@H]1C2", "Potency": "inactive"},
      {"smiles": "Cc1ccc2[nH]c(=O)c(Cc3ccccc3)c(O)c2c1", "Potency": "inactive"},
      {"smiles": "C=C1CCC[C@]2(C)C[C@H]3OC(=O)C(CN4CCCCC4CO)[C@H]3CC12", "note": "(some centres not stated)", "Potency": "inconclusive [inhibitor, partial curve, poor fit]"},
      {"smiles": "CC(C)OCCCNC(=O)C(NS(=O)(=O)c1ccc2c(c1)c(=O)n(C)c(=O)n2C)c1ccccc1", "note": "(configuration not stated)", "Potency": "inconclusive [inhibitor, single point]"},
      {"smiles": "CCCCNC(=O)COC(=O)c1c2c(nc3ccccc13)CCC2", "Potency": "inconclusive [inhibitor, partial curve]"},
      {"smiles": "Cc1nc(CS(=O)(=O)c2ccc(Cl)cc2)cc(Sc2ccc(Cl)cc2)n1", "Potency": "active: 3.29 µM"},
      {"smiles": "CCN1C(=O)/C(=C\\c2ccc3c(c2)OCO3)C(C(=O)OC)=C1C", "Potency": "inactive"},
      {"smiles": "CCN(CC)C(=O)c1cccc(NC(=O)c2cc(C3CC3)nc3c2cnn3C(C)C)c1", "Potency": "inconclusive [inhibitor, single point]"},
      {"smiles": "CCCC1S/C(=N/N=C/c2ccc(OC)cc2)N(Cc2ccc(OC)cc2)C1=O", "note": "(configuration not stated)", "Potency": "inconclusive [inhibitor, single point]"},
      {"smiles": "COc1ccccc1NC(=O)CSc1nnc(Cc2cccn2C)n1CCc1ccccc1", "Potency": "inconclusive [inhibitor, single point]"},
      {"smiles": "COc1cc(C(=O)N2c3ccccc3CC2C)cc(OC)c1OC", "note": "(configuration not stated)", "Potency": "inconclusive [inhibitor, single point]"},
      {"smiles": "CC1Cc2cc(S(=O)(=O)N3CCN(c4ccccc4)CC3)ccc2N1C(=O)C1CC1", "note": "(configuration not stated)", "Potency": "inactive"},
      {"smiles": "CCC12CN(C(=O)c3ccc(OC)cc3)CC(CC)(CN(C(=O)c3ccc(OC)cc3)C1)C2=O", "Potency": "inconclusive [inhibitor, partial curve]"},
      {"smiles": "COc1ccc(-c2nn(-c3ccccc3)cc2/C=C/C(=O)OCC(=O)Nc2ccc(C#N)cc2)cc1", "Potency": "inconclusive [inhibitor, single point]"},
      {"smiles": "CCOc1ccc(-c2nnc(NC(=O)C3CCCC3)o2)cc1", "Potency": "inactive"},
      {"smiles": "S=C(NCCNC(=S)Nc1ccccc1Cl)Nc1ccccc1Cl", "Potency": "active: 9.28 µM"},
      {"smiles": "O=C(N/N=C1\\CC(c2ccccc2)Oc2ccccc21)c1ccc(O)cc1", "note": "(configuration not stated)", "Potency": "inconclusive [inhibitor, partial curve, poor fit]"},
      {"smiles": "CCC(=O)Nc1cc(C(=O)OCc2ccc(C(=O)Oc3ccccc3)cc2)ccc1C", "Potency": "inactive"},
      {"smiles": "COc1ccc(CN2CCN(C(=O)CCC(=O)Nc3nnc(C(F)(F)F)s3)CC2)cc1F", "Potency": "inactive"},
      {"smiles": "COc1ccc(S(=O)(=O)N2CCN(C(=O)C3CCC3)CC2)cc1", "Potency": "inconclusive [inhibitor, partial curve, poor fit]"},
      {"smiles": "COc1ccc(CC(=O)N(C)Cc2cccc(F)c2)cc1S(=O)(=O)N1CCOCC1", "Potency": "inconclusive [inhibitor, single point]"},
      {"smiles": "CCCCCC(=O)N1CCCC1", "Potency": "inconclusive [inhibitor, single point]"},
      {"smiles": "CCc1cccc(C)c1NC(=O)CCNC(=O)c1cccc(C)c1", "Potency": "inactive"},
      {"smiles": "CCOc1ccc(N/C(=N/c2nc(C)cc(C)n2)NC(C)=O)cc1", "Potency": "inconclusive [inhibitor, partial curve]"},
      {"smiles": "O=C1NCCCC1C(=O)N1CCN(C(=O)C2CCCNC2=O)CC1", "note": "(configuration not stated)", "Potency": "active: 11.7 µM"},
      {"smiles": "CCc1nn(-c2cc(Oc3ccccc3)nc(-c3ccccc3)n2)c(N)c1C#N", "Potency": "inactive"},
      {"smiles": "COc1cccc(CN(C)C(=O)CNC(=O)c2ccc3c(c2)OCO3)c1OC", "Potency": "inconclusive [inhibitor, single point]"},
      {"smiles": "C=CCN1C(=O)/C(=C/c2ccc(OC(C)=O)c(OCC)c2[N+](=O)[O-])SC1=S", "Potency": "active: 9.28 µM"},
      {"smiles": "O=C(NCC(c1ccco1)N1CCc2ccccc2C1)c1ccc(F)cc1", "note": "(configuration not stated)", "Potency": "inconclusive [inhibitor, full curve, poor fit]"},
      {"smiles": "COc1ccc(NC2c3ncccc3C(=O)N2Cc2ccccc2)c(OC)c1", "note": "(configuration not stated)", "Potency": "inconclusive [inhibitor, single point]"},
      {"smiles": "O=C(NCC1CCCO1)c1cc2c([nH]c3ccccc32)c(-c2cccc(Cl)c2)n1", "note": "(configuration not stated)", "Potency": "inconclusive [inhibitor, partial curve, poor fit]"},
      {"smiles": "Cc1nc2ccccc2n1CCC(=O)Nc1cccc(F)c1", "Potency": "inconclusive [inhibitor, partial curve]"}
    ]}
  ]
}
